Binding data for 4 molecules are collected here from paper PMC4453211.

Results are given in words; binding and its absence hold for the method and conditions named. Binding seen in cells or lysates may run through a third protein. Some binding calls cover weakened binding; strength is not graded here. For some of these results: Where a sequence is shown, tags or fusion partners need not be part of it.

Experiment [1] addresses T1, human 12-LOX, full-length cDNA, expressed in CHO cells (human) (UniProt P18054).
T1 sequence: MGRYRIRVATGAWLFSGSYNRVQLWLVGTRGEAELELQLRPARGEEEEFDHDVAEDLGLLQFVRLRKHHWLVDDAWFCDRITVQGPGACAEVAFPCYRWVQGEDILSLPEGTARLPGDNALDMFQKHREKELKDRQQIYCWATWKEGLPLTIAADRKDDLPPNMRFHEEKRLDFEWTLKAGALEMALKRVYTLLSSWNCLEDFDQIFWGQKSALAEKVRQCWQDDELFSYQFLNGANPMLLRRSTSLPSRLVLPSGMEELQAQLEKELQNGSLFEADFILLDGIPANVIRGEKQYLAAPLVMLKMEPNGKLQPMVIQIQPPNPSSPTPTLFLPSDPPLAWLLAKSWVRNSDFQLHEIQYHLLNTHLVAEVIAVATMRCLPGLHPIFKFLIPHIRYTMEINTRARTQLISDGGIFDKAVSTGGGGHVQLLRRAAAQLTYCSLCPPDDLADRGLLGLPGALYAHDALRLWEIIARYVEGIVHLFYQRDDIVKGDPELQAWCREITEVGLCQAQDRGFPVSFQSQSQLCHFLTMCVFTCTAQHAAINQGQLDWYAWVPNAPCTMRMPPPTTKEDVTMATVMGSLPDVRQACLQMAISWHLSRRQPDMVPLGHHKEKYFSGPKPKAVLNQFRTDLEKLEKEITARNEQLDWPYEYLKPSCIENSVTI
The experiment can be described thus: co-IP; CHO transfectants with β4 constructs alone or with 12-LOX; lysis in 1 % Triton X-100, 0.5 % NP-40, 150 mM NaCl, 10 mM Tris pH 7.4; IP with anti-β4 mAbs (3E1, 439-9B, 450-11A) or anti-12-LOX antibody and protein G Sepharose at 4 °C; Western blot. Background: A western blot detects proteins with antibodies after separation by electrophoresis.

In experiment [2] the target is integrin β4 subunit (human (endogenous in A431)) (UniProt P16144). The experiment is described as follows: co-IP; A431 cells and A431 12-LOX transfectants, serum-starved, stimulated with anti-β4 mAb 3E1 (5 μg/ml, 5-90 min) or grown on laminin; lysis in 1 % Triton X-100, 0.5 % NP-40, 150 mM NaCl, 10 mM Tris pH 7.4; IP with anti-12-LOX, anti-β1 or anti-β4 antibody and protein G Sepharose at 4 °C; Western blot.

As to “full-length, wild-type human integrin β4 subunit (pRC-CMV-β4) (from UniProt P16144-2 28-1752) (receptor)”, the binding entry in experiment [1] was “binds”.

B1: human platelet-type 12-lipoxygenase (enzyme, UniProt P18054 1-663)
chain: MGRYRIRVATGAWLFSGSYNRVQLWLVGTRGEAELELQLRPARGEEEEFDHDVAEDLGLLQFVRLRKHHWLVDDAWFCDRITVQGPGACAEVAFPCYRWVQGEDILSLPEGTARLPGDNALDMFQKHREKELKDRQQIYCWATWKEGLPLTIAADRKDDLPPNMRFHEEKRLDFEWTLKAGALEMALKRVYTLLSSWNCLEDFDQIFWGQKSALAEKVRQCWQDDELFSYQFLNGANPMLLRRSTSLPSRLVLPSGMEELQAQLEKELQNGSLFEADFILLDGIPANVIRGEKQYLAAPLVMLKMEPNGKLQPMVIQIQPPNPSSPTPTLFLPSDPPLAWLLAKSWVRNSDFQLHEIQYHLLNTHLVAEVIAVATMRCLPGLHPIFKFLIPHIRYTMEINTRARTQLISDGGIFDKAVSTGGGGHVQLLRRAAAQLTYCSLCPPDDLADRGLLGLPGALYAHDALRLWEIIARYVEGIVHLFYQRDDIVKGDPELQAWCREITEVGLCQAQDRGFPVSFQSQSQLCHFLTMCVFTCTAQHAAINQGQLDWYAWVPNAPCTMRMPPPTTKEDVTMATVMGSLPDVRQACLQMAISWHLSRRQPDMVPLGHHKEKYFSGPKPKAVLNQFRTDLEKLEKEITARNEQLDWPYEYLKPSCIENSVTI
For the molecule B1, in experiment [2], the binding entry is on record as “binds”.

B2: human 12-LOX, full-length cDNA, over-expressed in A431 cells (enzyme, UniProt P18054 1-663)
chain: MGRYRIRVATGAWLFSGSYNRVQLWLVGTRGEAELELQLRPARGEEEEFDHDVAEDLGLLQFVRLRKHHWLVDDAWFCDRITVQGPGACAEVAFPCYRWVQGEDILSLPEGTARLPGDNALDMFQKHREKELKDRQQIYCWATWKEGLPLTIAADRKDDLPPNMRFHEEKRLDFEWTLKAGALEMALKRVYTLLSSWNCLEDFDQIFWGQKSALAEKVRQCWQDDELFSYQFLNGANPMLLRRSTSLPSRLVLPSGMEELQAQLEKELQNGSLFEADFILLDGIPANVIRGEKQYLAAPLVMLKMEPNGKLQPMVIQIQPPNPSSPTPTLFLPSDPPLAWLLAKSWVRNSDFQLHEIQYHLLNTHLVAEVIAVATMRCLPGLHPIFKFLIPHIRYTMEINTRARTQLISDGGIFDKAVSTGGGGHVQLLRRAAAQLTYCSLCPPDDLADRGLLGLPGALYAHDALRLWEIIARYVEGIVHLFYQRDDIVKGDPELQAWCREITEVGLCQAQDRGFPVSFQSQSQLCHFLTMCVFTCTAQHAAINQGQLDWYAWVPNAPCTMRMPPPTTKEDVTMATVMGSLPDVRQACLQMAISWHLSRRQPDMVPLGHHKEKYFSGPKPKAVLNQFRTDLEKLEKEITARNEQLDWPYEYLKPSCIENSVTI
Turning to B2, the binding result in experiment [2] is recorded as “binds”.

B3: headless, truncated human integrin β4 (pCMV-β4 Δ70-660), extracellular sequences replaced by a c-myc epitope tag (domain or fragment, UniProt P16144-2 28-69; P16144-2 661-1752)
chain: NRCKKAPVKSCTECVRVDKDCAYCTDEMFRDRRCNTQAELLALKRAEEVVVRCSFRDEDDDCTYSYTMEGDGAPGPNSTVLVHKKKDCPPGSFWWLIPLLLLLLPLLALLLLLCWKYCACCKACLALLPCCNRGHMVGFKEDHYMLRENLMASDHLDTPMLRSGNLKGRDVVRWKVTNNMQRPGFATHAASINPTELVPYGLSLRLARLCTENLLKPDTRECAQLRQEVEENLNEVYRQISGVHKLQQTKFRQQPNAGKKQDHTIVDTVLMAPRSAKPALLKLTEKQVEQRAFHDLKVAPGYYTLTADQDARGMVEFQEGVELVDVRVPLFIRPEDDDEKQLLVEAIDVPAGTATLGRRLVNITIIKEQARDVVSFEQPEFSVSRGDQVARIPVIRRVLDGGKSQVSYRTQDGTAQGNRDYIPVEGELLFQPGEAWKELQVKLLELQEVDSLLRGRQVRRFHVQLSNPKFGAHLGQPHSTTIIIRDPDELDRSFTSQMLSSQPPPHGDLGAPQNPNAKAAGSRKIHFNWLPPSGKPMGYRVKYWIQGDSESEAHLLDSKVPSVELTNLYPYCDYEMKVCAYGAQGEGPYSSLVSCRTHQEVPSEPGRLAFNVVSSTVTQLSWAEPAETNGEITAYEVCYGLVNDDNRPIGPMKKVLVDNPKNRMLLIENLRESQPYRYTVKARNGAGWGPEREAIINLATQPKRPMSIPIIPDIPIVDAQSGEDYDSFLMYSDDVLRSPSGSQRPSVSDDTEHLVNGRMDFAFPGSTNSLHRMTTTSAAAYGTHLSPHVPHRVLSTSSTLTRDYNSLTRSEHSHSTTLPRDYSTLTSVSSHDSRLTAGVPDTPTRLVFSALGPTSLRVSWQEPRCERPLQGYSVEYQLLNGGELHRLNIPNPAQTSVVVEDLLPNHSYVFRVRAQSQEGWGREREGVITIESQVHPQSPLCPLPGSAFTLSTPSAPGPLVFTALSPDSLQLSWERPRRPNGDIVGYLVTCEMAQGGGPATAFRVDGDSPESRLTVPGLSENVPYKFKVQARTTEGFGPEREGIITIESQDGGPFPQLGSRAGLFQHPLQSEYSSITTTHTSATEPFLVDGLTLGAQHLEAGGSLTRHVTQEFVSRTLTTSGTLSTHMDQQFFQT
Take B3: the binding result in experiment [1] is recorded as “binds”.
